± gives the standard deviation of the averaged measurements. This is one part of the list.
tested on: PfAP2-G AP2 domain (GST-tagged); assay: gcPBM binding intensity (ln(normalized median fluorescence intensity)); higher = stronger DNA binding
Method in brief: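 The binding buffer was 1× PBS containing 1% milk, 0.2 mg/ml BSA, 0.5% salmon testes DNA and 0.03% Triton X-100. In it, GST-tagged P. falciparum DNA-binding domains expressed in E. coli were applied for 1 h to an Agilent 4 × 180k array of primer-extended double-stranded 36-bp intergenic genomic probes plus negative controls. Binding intensity, read with Alexa488 anti-GST antibody and a 488 nm scan, is the highest Masliner-normalised natural-log median intensity across replicate spots of either probe orientation.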

Sequence	gcPBM binding intensity (ln)
TATATTTTTATTGAACGTACAAAAAGTCGAAAACAG [XGTACX_site3967]	11.4 ± 0.74
TTTAAATACAGACATACACACATACACGCACATATA [CACACA_site6400]	10.5 ± 0.3
AGGTAGAAATTGTTAAAAAATCATACATATTATATA [CACACA_negctrl_site622]	9.81 ± 0.099
ATTCTATATGTTACATAAACCTATATTTTTTTTTTT [CACACA_negctrl_site860]	9.83 ± 0.085
ATAAAGCCATACAATACACACATTTTACATGTCGGT [CACACA_site3265]	10.01 ± 0.057
TAAGCCACCATATTTACACACACATCAAAATGTATT [CACACA_site1815]	10.06 ± 0.057
GAAAAAAGAAATTTATGTACATACATATATATATAT [XGTACX_site7888]	11.2 ± 0.76
CATTCAAAGAAAAACAGTACGTGTAGCAAAAGGCCT [XGTACX_site266]	10.9 ± 0.57
TAATATTGACTATATACACACATATAAATATAAATA [CACACA_site6414]	9.91 ± 0.11
TATATATATATATATACATGCATCATTGTTCACCTT [TGCATGCA_site177]	9.94 ± 0.099
TTTTTTTTTTAATTAACACACATAAATATAAATATA [CACACA_site7527]	9.99 ± 0.4
AAAAAAAAAAAAAAAAGTACATATGCTCAAGAGATG [XGTACX_site3783]	11.5 ± 0.82
GCTGAAAATAAATGAAGTACACAAGTAATATATATA [XGTACX_site6205]	11.5 ± 0.95
TAAATAATATAATTATGTACGTATTTCTTTATTTTA [XGTACX_site8410]	11.4 ± 0.83
ATCATTTAAACAATATGTACTCATTGTAGATATGGT [XGTACX_site5088]	11.3 ± 0.85
TGAATAAAATATTATACACACATATGTATTTAACAT [CACACA_site4694]	9.955 ± 0.007
AATGGGATCATGGTATGTACTTACACAAATGAATTA [XGTACX_site5389]	11.3 ± 0.59
TTGTATTTACTATACACACACATACATACATACATA [CACACA_site4603]	10.2 ± 0.27
TATTCCCCCAAACACACACACACACCCACATACCAC [CACACA_site2304]	11.1 ± 0.78
TAAAAATAATATTAATGTACATTACATATTAATATA [XGTACX_site1019]	10.8 ± 0.47
CGTTACACAAAAATATGTACATATATACATATATAT [XGTACX_site4631]	11.1 ± 0.64
TATAAATATAAATACTGTACATTATATTATATAATA [XGTACX_site2480]	11 ± 0.71

Sequence	gcPBM binding intensity (ln)
ATATATATATATATGTGTACATATTAGTGATATAAT [XGTACX_site7161]	11.4 ± 0.8
AATGCGCATTTTTTTTTTTTTTTTTTTTTTTTTTTT [XGTACX_negctrl_site258]	11.1 ± 0.7
TTTCTTTTTTTTTTTTCATTGATCCATTTATGATTA [TGCATGCA_negctrl_site225]	9.67 ± 0.071
TTATAGGTTCTATACATATATTTATATATGTACAGA [CACACA_negctrl_site60]	11.3 ± 0.81
TTTTTAAAAATATACACACACAGATATTATAGATAT [CACACA_site6511]	10.2 ± 0.11
CAAGCTATGTATTCTACACACACATACACCCATATA [CACACA_site9133]	10.4 ± 0.34
TTCAATAGTAAGTATACACACATATATATATATAAA [CACACA_site2687]	10.1 ± 0.26
GAAAATATTATAGCACCACACACTTATTTTATATAT [CACACA_site2265]	10.07 ± 0.042
AACGTTAAAAAAAAAATATATATAAGGAGAAAGCAC [XGTACX_negctrl_site338]	10.1 ± 0.29
TATGCGTCTTGCCTTGCACACTTTTATGAAAAAAAA [CACACA_site5174]	10.3 ± 0.42
AGTATACATATATATACACACACACCGATATATATA [CACACA_site8357]	9.88 ± 0.014
TAAAAAAAATAAACGTGTACATAAAAATGAATATGT [XGTACX_site119]	11.4 ± 0.81
TTAATATATTAAATCTTACACACTAAAAAATATGTA [CACACA_site307]	9.93 ± 0.2
AAAAAAAAAAATATATTATTTTACTTGTTTATTTTT [GTGCAC_negctrl_site435]	9.27 ± 0.25
AATAATCAAATATTAAAAATTGTGCAAAAAAAAAAA [XGTACX_negctrl_site399]	9.86 ± 0.14
TCGTACTTGTATTATGCACACATATAATTAAACATA [CACACA_site9089]	11.2 ± 0.98
TTTGTTTTAAATATTATACACACGTAAAAGTATAAT [CACACA_site7954]	10.7 ± 0.45
TAATATTATATATAAACACACATACCCATGTAAATA [CACACA_site5170]	10.12 ± 0.035
TATGAAAAAATATATACACACATAATAAAGGTATAT [CACACA_site3737]	9.91 ± 0.071
TAATAAATAAAATATGCACACAAATATAGGAAACAA [CACACA_site8820]	10.5 ± 0.48
TATATAAAGCATTGTAGTACTACCAATATTTTTTTT [XGTACX_site3523]	11.6 ± 1
AAAAAATATACATATACACACATATGTATATAGAAT [CACACA_site2170]	9.96 ± 0.099

Sequence	gcPBM binding intensity (ln)
AAAATAAACAATGAACAATAAACAATGAACAATGAA [CACACA_negctrl_site1194]	9.935 ± 0.092
AAAATATTATAAATTTGTACTTATAAATATTGTATA [XGTACX_site8165]	11 ± 0.78
ATATGTTATATGTAATGTACTTTTGATGTATATATT [XGTACX_site8615]	11 ± 0.51
ATATATATATATATATGTACATAATAATATATATTA [XGTACX_site111]	11.3 ± 0.72
TAAAAGGTGTATATAATACACACGTGGGATTAGAAT [CACACA_site610]	10.22 ± 0.057
ATATGTATATTTTTTTGTACGTATTTATGTGTGTGT [XGTACX_site2093]	11.4 ± 0.84
ATATTTTATGTGTTGGTGCACATCTTTATTTAAACT [GTGCAC_site9736]	10.5 ± 0.32
ATATATACAAGTATTTTTTTTTCAAACATTATTTTT [CACACA_negctrl_site1808]	9.84 ± 0.16
CGTTATATATATAAAAGTACAAAAATTAAACATTCC [XGTACX_site4568]	11.1 ± 0.54
ATATGTAAATAAATATGTACTCATTTATTATTTTAT [XGTACX_site8748]	11.5 ± 1
ATATATATAATATAATGTACGTATAATAATATGAGA [XGTACX_site2282]	11.4 ± 0.83
ATTTTTTTTATTTTTTCAATATATATATATATATAT [CACACA_negctrl_site1444]	10.2 ± 0.49
GAAATAGAAATAAAATAGGCATACAATAGAACTAAG [TGCATGCA_negctrl_site537]	10.06 ± 0.057
TTATATATATATAATACACACATAATAATATATTTA [CACACA_site3038]	9.855 ± 0.078
TCTCTATAAATAAATACATGCATATAATAAAGAATT [TGCATGCA_site710]	9.81 ± 0.042
TTATATATATATTATAGTACATATATAATATAGTAA [XGTACX_site6869]	10.9 ± 0.79
ATATATGAGCAAAAATATATAAGATAACACATAAAT [CACACA_negctrl_site167]	9.93 ± 0.12
TTTATCTGATATATTACACACAAAAAAAAAAAAAAA [CACACA_site7637]	9.77 ± 0.36
AATATTATATATATGGGTACTAATTCCTTTAATTTC [XGTACX_site102]	10.8 ± 0.47
CCTTATTATTATTTTACACACGTCCTAATAAGAGGA [CACACA_site1319]	10.3 ± 0.27
TATTTAAAAATATATACACACATTTTATATTATTAT [CACACA_site781]	9.78 ± 0.085
AATATATAAATAAATACACACATAAAATAGAAATAT [CACACA_site1663]	9.965 ± 0.007

Sequence	gcPBM binding intensity (ln)
AAAAACAAAAAAGAAGCACACATATATATATATATA [CACACA_site8779]	10.1 ± 0.61
AAATATCTTTTATATTGTACATATTCCTTATGTGGA [XGTACX_site7638]	10.9 ± 0.52
TATTTTACAAAATAAGGTACGTAAATATATGGTAGG [XGTACX_site2133]	11.2 ± 0.5
ATAATGACTAAATTTAAACACACAAGGGGAGTTTAC [CACACA_site8209]	9.725 ± 0.007
TTTTTTTAAACTGAAAGTACTTATTCCAAGAAAATA [XGTACX_site50]	11 ± 0.71
ATATATATATCAACAACACACGATTAACTAAAAAAA [CACACA_site302]	9.96 ± 0.11
GCATAAGAAATAAATAGTACACACATAGACACACAC [XGTACX_site3095]	11.6 ± 0.85
TATATATATATATACACACACATATATATATATATA [CACACA_site1346]	9.97 ± 0.45
ATAAGATATGTATATACACACATTTATTTACATATA [CACACA_site3263]	9.885 ± 0.021
TACCCATATTAATATGTGCGCATATAAAAGTCAAAC	10.5 ± 0.28
CGCACAAAAATATACACACACACATCTATATTTATT [CACACA_site7675]	10.02 ± 0.028
AAAACAAATGAGTACACACACATAAAAGTTGAAAAT [CACACA_site6238]	11.8 ± 1.3
TAAATAGTTATAAAAGTGCAAAAAAAAAAAAAAAAA [GTGCAC_site9550]	9.79 ± 0.57
ACTCAAAATTATAATTGTACAAATGCTTTGTTTAAT [XGTACX_site3437]	10.6 ± 0.31
TTTTCGGATAATAATTGTACGAAACATTTAAAAAAA [XGTACX_site8898]	10.9 ± 0.66
TTGTAAGAAAAACACACACACACATATATATATATA [CACACA_site795]	9.99 ± 0.26
TATATAATATATATATGTACACATATACATTTTTAT [XGTACX_site2832]	11.5 ± 0.97
TTAATTTCAAGTAGAAGTACTTTTATGATTGTGAGG [XGTACX_site1247]	11.3 ± 0.83
GTGCATAGATGATATACACACAATATAATAGTATGT [CACACA_site5373]	10.05 ± 0.064
TATAATTTAGCTTGTGCATGCAGGTGCTACATTTGT [TGCATGCA_site217]	10 ± 0.24
ATCATATATGTTATTACACACGTTATGTTATTATAA [CACACA_site2712]	9.965 ± 0.035
TATTATATCTTTATTATTCATCTAAAATTTGTATTT [TGCATGCA_negctrl_site233]	9.7 ± 0.12
